# PubChem BioAssay AID1745853 (National Center for Advancing Translational Sciences (NCATS), 2022)
# The list shows a part of the results. Shown are side measurements of this screen, not its main read-out; they come without a call.
# Assays:
# Assay in all cases: Primary Screen for Target Class Profiling of Small Molecule Inhibitors of Methyltransferases
# [1] = biological target: Glycine N-methyltransferase (Homo sapiens) (UniProt Q14749); conditions: purified enzyme, MTase-Glo SAH luminescence; measured here: GNMT inhibition; at 40 µM; stronger effect = lower value
# Summary of the method: (§1)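 Each enzyme was assayed with SAM and its substrate. SAH formation detected by MTase-Glo luminescence; single-point 40 uM screen[…].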
# [2] = biological target: Guanidinoacetate N-methyltransferase (Homo sapiens) (UniProt Q14353); conditions: purified enzyme, MTase-Glo SAH luminescence; measured here: GAMT inhibition; at 40 µM; stronger effect = lower value
# Summary of the method: as §1
# [3] = biological target: Histamine N-methyltransferase (Homo sapiens) (UniProt P50135); conditions: purified enzyme, MTase-Glo SAH luminescence; measured here: HNMT inhibition; at 40 µM; stronger effect = lower value
# Summary of the method: as §1
# [4] = biological target: Nicotinamide N-methyltransferase (Homo sapiens) (UniProt P40261); conditions: purified enzyme, MTase-Glo SAH luminescence; measured here: NNMT inhibition; at 40 µM; stronger effect = lower value
# Summary of the method: as §1
# [5] = biological target: Phenylethanolamine N-methyltransferase (Homo sapiens) (UniProt P11086); conditions: purified enzyme, MTase-Glo SAH luminescence; measured here: PNMT inhibition; at 40 µM; stronger effect = lower value
# Summary of the method: as §1
# % is set by controls: 0 for no effect and ±100 for the full control effect.
SMILES,"activity change, negative = inhibition [1]","activity change, negative = inhibition [2]","activity change, negative = inhibition [3]","activity change, negative = inhibition [4]","activity change, negative = inhibition [5]"
CCS(=O)(=O)Nc1cccc(C(=C2CCCCC2)c2cnc[nH]2)c1,-5.06%,9.59%,0.092%,-10.7%,10.7%
Cc1cccc(NC(=O)N2Cc3ccccc3-n3cccc3C2c2ccc(N(C)C)cc2)c1C (stereo unspecified),9.78%,0%,0.104%,8.63%,7.26%
Cc1[nH]c2ccc(O)cc2c1CCN,-4.32%,8.64%,-14.3%,-7.22%,-4.17%
COc1ccccc1NC(=O)N1Cc2ccccc2-n2cccc2C1c1cccc(Cl)c1 (stereo unspecified),15.2%,1.18%,7.39%,8.88%,9.44%
COc1ccc(C(=O)N2CCCC2=O)cc1,1.81%,11.7%,6.13%,-3.63%,8.89%
COc1ccc(NC(=O)N2Cc3ccccc3-n3cccc3C2c2ccc(OC)cc2)cc1 (stereo unspecified),2.15%,4.95%,-7.18%,-8.03%,0.963%
O=C1/C(=C/c2ccccc2)C[C@@]2(O)[C@H]3Cc4ccc(O)c5c4[C@@]2(CCN3CC2CC2)[C@H]1O5,-11.9%,13.9%,-4.66%,-0.232%,9.22%
O=C(O)C1=NOC2CN(Cc3ccccc3)CC12 (stereo unspecified),-5.89%,-6.84%,-3.83%,-13.5%,2.04%
COc1ccc(NC(=O)N2Cc3ccccc3-n3cccc3C2c2ccc(N(C)C)cc2)cc1 (stereo unspecified),3.85%,4.4%,-2.29%,-3.57%,-4.89%
COc1ccc(C2c3cccn3-c3ccccc3CN2C(=O)Nc2ccc(Br)cc2)cc1 (stereo unspecified),8.5%,0%,1.5%,2.95%,6.5%
CCOc1ccc(C2c3cccn3-c3ccccc3CN2C(=O)Nc2ccc(C)c(Cl)c2)cc1 (stereo unspecified),-5.96%,-2.87%,-1%,-2.47%,-3.55%
CC[C@H](O)[C@@H](C)[C@H]1O[C@@H]1C[C@H](C)/C=C/C=C(\C)[C@H]1OC(=O)C[C@H](O)CC[C@@](C)(O)[C@@H](OC(C)=O)/C=C/[C@@H]1C,4.39%,-0.936%,-0.297%,-17.7%,-8.09%
CC[C@H](C)[C@H](NC(=O)[C@H]1CCCCN1C)C(=O)N(COC(=O)CC(C)C)[C@H](C[C@@H](OC(C)=O)c1nc(C(=O)N[C@@H](Cc2ccc(O)cc2)C[C@H](C)C(=O)O)cs1)C(C)C,6.37%,9.21%,3.1%,-12.6%,-6.4%
COC[C@@H]1OC(=O)/C(=C\N(C)CCCN(C)C)C2=C(O)C(=O)C3=C([C@@H](OC(C)=O)C[C@@]4(C)[C@@H]3CC[C@@H]4O)[C@@]21C,–,5.11%,–,-10.1%,-17.7%
COC1CC(OC2CCC3(C)C(=CCC4C3CCC3(C)C(C(C)OC5OC(COC6OC(CO)C(O)C(O)C6O)C(O)C(O)C5O)CCC43O)C2)OC(C)C1OC1OC(C)C(O)C(OC)C1O (stereo unspecified),5.2%,6.47%,1.53%,-6.84%,6.76%
CCOCCCNC(=O)N1Cc2ccccc2-n2cccc2C1c1ccc(OC)c(OC)c1 (stereo unspecified),10.7%,0%,4.4%,-0.693%,6.08%
CSc1cccc(NC(=O)N2Cc3ccccc3-n3cccc3C2C)c1 (stereo unspecified),7.83%,0.88%,-1.23%,-8.5%,-0.384%
CC(C)NC(=O)N1CC[C@@H](CC(=O)O)[C@@H](CCN2C[C@@H]3C[C@H](C2)c2cccc(=O)n2C3)C1,-1.38%,0.719%,1.19%,1.94%,-17.2%
CCC1c2cccn2-c2ccccc2CN1C(=O)NCCCOC (stereo unspecified),-2.85%,3.57%,-5.48%,-7.42%,-3.45%
Cc1cccc(NC(=O)N2Cc3ccccc3-n3cccc3C2C(C)C)c1 (stereo unspecified),4.62%,0%,2.99%,5.55%,7.26%
CN(C)c1ccc(C2c3cccn3-c3ccccc3CN2C(=O)Nc2ccc(F)c(Cl)c2)cc1 (stereo unspecified),5.19%,0%,1.37%,3.21%,2.71%

SMILES,"activity change, negative = inhibition [1]","activity change, negative = inhibition [2]","activity change, negative = inhibition [3]","activity change, negative = inhibition [4]","activity change, negative = inhibition [5]"
CN(Cc1cccc(-c2ccncc2)c1)C(=O)Oc1ccc(-c2ccc(C(N)=O)cc2)cc1,2%,-14.7%,-4.57%,-26.4%,-17.1%
CC1c2cccn2-c2ccccc2CN1C(=O)Nc1cccc(Br)c1 (stereo unspecified),9.99%,0%,3.49%,0.58%,-2.19%
CCc1ccc(NC(=O)N2Cc3ccccc3-n3cccc3C2c2ccccc2)cc1 (stereo unspecified),8.68%,1.33%,0.583%,-4.18%,2.67%
COc1ccc(NC(=O)N2Cc3ccccc3-n3cccc3C2c2ccc(F)cc2)cc1 (stereo unspecified),2.52%,2.1%,4.57%,1.15%,-0.211%
CC(=O)O[C@@H]1CC2C(C)(C)C(=O)C=C[C@]2(C)C2CC[C@]3(C)C(=CC(=O)O[C@H]3c3ccoc3)[C@@]21C (stereo partly specified),–,-9.56%,–,-36.3%,-16.7%
CCC1c2cccn2-c2ccccc2CN1C(=O)Nc1cccc(Cl)c1 (stereo unspecified),1.46%,0.209%,7.91%,6.48%,8.1%
Cc1ccccc1NC(=O)N1Cc2ccccc2-n2cccc2C1c1ccc(N(C)C)cc1 (stereo unspecified),3.73%,0%,2.01%,4.01%,4.62%
C/C1=C/[C@@H](C)C/C=C/[C@H]2[C@@H]3O[C@]3(C)[C@@H](C)[C@H]3[C@H](Cc4c[nH]c5ccccc45)NC(=O)[C@]32C(=O)/C=C\C(=O)[C@@H]1O,-6%,-1.41%,1.25%,-11.4%,1.64%
COC1C(O)C(OC2CCC3(C=O)C(CCC4C3CCC3(C)C(C5=CC(=O)OC5)CCC43O)C2)OC(C)C1OC1OC(CO)C(O)C(O)C1O (stereo unspecified),0%,0.85%,6.49%,-7.63%,2.04%
CO[C@H]1CC=C2CCN3CCC4=C(CC(=O)OC4)[C@]23C1,-6.32%,6.76%,-0.206%,-0.697%,6.68%
CC[C@@H]1C[C@H]2CC[C@H](O2)[C@H](C)C(=O)O[C@@H](C)C[C@@H]2CC[C@@H](O2)[C@@H](C)C(=O)O[C@H](CC)C[C@H]2CC[C@H](O2)[C@H](C)C(=O)O[C@@H](C)C[C@@H]2CC[C@@H](O2)[C@@H](C)C(=O)O1,-48.4%,-38.5%,-8%,-18.9%,-38.5%
C[C@]12CC[C@H](O)CC1=CC[C@@H]1C2CC[C@]2(C)[C@@H](C3=CC(=O)OC3)CC[C@]12O (stereo partly specified),-1.4%,-1.55%,10.1%,-16.2%,-10.6%
CCCCn1cc(C(=O)c2cccc3ccccc23)c2ccccc21,2.6%,-12.4%,8.74%,-21.2%,-4.04%
CCCS(=O)(=O)N1C[C@@H]2C[C@H](C1)c1c(-c3ccccc3)ccc(=O)n1C2,-3.52%,-3.11%,-1.92%,-3.23%,-1%
COC(=O)CCNC(=O)N1Cc2ccccc2-n2cccc2C1c1ccc(OC)cc1 (stereo unspecified),1.45%,2.46%,-6.11%,-10%,-2.06%
C[N+]1(C)CCOC(O)(c2ccc(-c3ccc(C4(O)C[N+](C)(C)CCO4)cc3)cc2)C1 (stereo unspecified),2.19%,14.5%,7.25%,-2.84%,4.84%
Nc1ccncc1,-0.028%,7.64%,-20.2%,-29.1%,3%
CCOc1ccc(C2c3cccn3-c3ccccc3CN2C(=O)Nc2ccc(F)c(Cl)c2)cc1 (stereo unspecified),-7.74%,4.83%,-3.16%,4.59%,1.85%
CCN1C(=O)CCNCC12CCOCC2,-1.05%,1.56%,1.18%,-0.894%,-1.33%
CCOCCCNC(=O)N1Cc2ccccc2-n2cccc2C1c1ccc(SC)cc1 (stereo unspecified),-1.93%,0%,3.78%,1.44%,5.29%
CCOC(=O)Nc1ccc(NCc2c(C)cc(C)cc2C)cc1N,-1.99%,-15.9%,4.25%,-33.8%,-8.65%
